The source of these data is paper PMC6919601, “Identification of Plasmodium dipeptidyl aminopeptidase allosteric inhibitors by high throughput screening” (PLoS ONE, 2019).

“And” between values parts separate entries of the source, which are not always exact repeats. Identical values can stand only once. Screen size: about 110,000 compounds; about 230 (0.21%) showed an effect of 50% or more. The list shows a part of the results.
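Note: 30 min substrate incubation versus DMSO and 10 µM JCP410 controls.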

Chain of DPAP1 (Q8IIJ9 whole entry, looked up): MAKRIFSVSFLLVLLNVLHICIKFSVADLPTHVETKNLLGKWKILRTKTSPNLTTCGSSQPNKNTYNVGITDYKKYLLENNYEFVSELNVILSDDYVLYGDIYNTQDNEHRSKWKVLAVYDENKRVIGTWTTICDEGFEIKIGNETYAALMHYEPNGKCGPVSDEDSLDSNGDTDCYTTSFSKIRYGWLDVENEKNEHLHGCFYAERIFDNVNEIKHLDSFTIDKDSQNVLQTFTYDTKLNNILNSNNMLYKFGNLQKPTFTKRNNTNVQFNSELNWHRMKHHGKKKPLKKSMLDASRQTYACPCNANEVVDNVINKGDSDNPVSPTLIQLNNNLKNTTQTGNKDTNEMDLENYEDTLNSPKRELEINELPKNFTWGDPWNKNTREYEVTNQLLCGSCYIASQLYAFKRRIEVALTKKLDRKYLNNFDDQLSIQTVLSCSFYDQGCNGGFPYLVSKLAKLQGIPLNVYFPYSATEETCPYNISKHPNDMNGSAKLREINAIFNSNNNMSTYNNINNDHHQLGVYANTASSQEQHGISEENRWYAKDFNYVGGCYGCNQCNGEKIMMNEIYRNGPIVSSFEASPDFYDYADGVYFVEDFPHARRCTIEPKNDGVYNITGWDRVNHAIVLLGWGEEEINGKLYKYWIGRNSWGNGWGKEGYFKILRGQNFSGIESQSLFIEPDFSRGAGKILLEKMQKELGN

The test has as its target DPAP1 (Plasmodium falciparum, UniProt Q8IIJ9). Put plainly: primary screen, percent inhibition; read by cleavage of a fluorogenic dipeptide substrate; higher = more effect of the substance. Further details: species or system P. falciparum D10 trophozoite lysates; single well.
Regarding `O=C(Nc1cccnc1)c1ccc(Oc2ccccc2)cc1`, the “% Inhibition @ 10 uM” value was -5.54%. As for `Cn1c2ccccc2c2cnn(CC(=O)NC3CCN(Cc4ccccc4)CC3)c(=O)c21`, the figure is 4.53%; as for `O=C(O)C1Cc2c([nH]c3ccccc23)C2c3ccccc3C(=O)N12` (stereo not shown), 4.89%; as for `CC(C)Cn1c(NC2CCCCC2)nc2c1c(=O)[nH]c(=O)n2C`, -3.41%. The result for `O=C(COCc1cc(-c2ccc3c(c2)OCO3)on1)Nc1c2ccccc2nc2ccccc12` reads -1.04%.

As for `Cc1cccc2sc(NC(=O)CCn3cnnn3)nc12`, the “% Inhibition @ 10 uM” value is listed as -3.07%.

For the molecule `O=C1OC(Oc2ccccc2)(c2ccccc2)c2ccccc21` (stereo not shown), the “% Inhibition @ 10 uM” value is recorded as -2.87%.

`O=C(Cn1ncc2c1-c1ccccc1OC2)Nc1ccc(Cl)cn1`: the “% Inhibition @ 10 uM” value is reported as 0.981%. As for `Cc1ccc(-n2nc(C)c3c2OC(N)=C(C#N)C3c2ccco2)cc1` (stereo not shown), the figure is 0.317%. The result for `CCOC(=O)c1c(-c2ccccc2)csc1NC(=O)c1cccs1` reads 2.23%. The result for `Cn1c(=O)c2c(ncn2CC(=O)NCc2ccc(Cl)cc2)n(C)c1=O` reads -1.33%. As for `O=C(/C=C/c1cccc([N+](=O)[O-])c1)Nc1ccccc1Cl`, the “% Inhibition @ 10 uM” value was 6.14%. As for `Cn1c(=O)n(C)c2c([N+](=O)[O-])ncc(Br)c21`, the figure is 2.58%; as for `CC(NC(=O)c1cccc2c1C(=O)N(Cc1cccnc1)C2)c1cccs1` (stereo not shown), -0.499%; as for `CCOC(=O)c1cc(C)n(CC2CCC(C(=O)Nc3cccc(C)n3)CC2)c1C` (stereo not shown), -0.943%. Turning to `Cn1c(=O)c2c(nc(Oc3ccc(C#N)cc3)n2Cc2ccccc2Cl)n(C)c1=O`, the “% Inhibition @ 10 uM” value is listed as 3.81%. As to `CCN(CC)CCN(CC)Cc1ccc(N(C)C)cc1`, the “% Inhibition @ 10 uM” value was determined as 3.44%. The result for `O=C(/C=C/c1cn(-c2ccccc2)nc1-c1cccnc1)c1ccccc1` reads -0.339%. The result for `NC(=O)NC1CCCCC1` reads -0.48%; that for `O=C(NC1C2CC3CC(C2)CC1C3)c1cccc([N+](=O)[O-])c1` (stereo not shown), 0.162%; that for `Cc1ccc(S(=O)(=O)N2CC(=NN=C(N)N)C2)cc1`, -1.84%.

Take `Cc1ccc(CCNC(=O)CNC(=O)c2cc3ccccc3o2)cc1`: the “% Inhibition @ 10 uM” value is recorded as -5.1%. As for `CCOc1cc(C(=O)Nc2c3c(nn2-c2ccc(C)cc2)CS(=O)(=O)C3)cc(OCC)c1OCC`, the figure is 0.849%. The result for `Cc1cc(OCC(=O)Nc2ccc(Br)cc2)ccc1Cl` reads 0.214%. The result for `CCC(c1ccccc1)c1c(O)oc2ccccc2c1=O` (stereo not shown) reads 9.35%; that for `O=C(Nc1ccc(CN2CCOCC2)cc1)c1ccc(Cl)cc1`, 1.83%; that for `Cc1cccc(NC(=O)C2CC(=O)N=C(Nc3ccc(C)c(C)c3)S2)c1` (stereo not shown), 1.79%. For the molecule `CCc1ccc(OCC(O)CN2CCN(C)CC2)cc1` (stereo not shown), the “% Inhibition @ 10 uM” value is listed as -0.424%. As for `O=C(NCCO)/C(=C/c1ccc2c(c1)OCO2)NC(=O)c1cccc(Br)c1`, the figure is 2.18%; as for `CCC(C)NC(=O)c1ccc2[nH]c(C)c(C)c2c1` (stereo not shown), 0.92%; as for `O=C(O)c1ccc(/C=C2/NC(=O)N(Cc3ccccc3F)C2=O)cc1`, -0.48%. As for `CCOC(=O)N1CCC(N2CCN(CC)CC2)CC1`, the figure is 1.08%; as for `O=C(CCN1C(=O)c2cccc3cccc(c23)C1=O)N1CCCCC1`, 1.55%. As for `COc1ccccc1CNC(=O)CC(c1cccs1)N1Cc2ccccc2C1=O` (stereo not shown), the figure is 0.28%. For `CCc1nn(CC(=O)N2CCN(Cc3ccc4c(c3)OCO4)CC2)c(=O)c2cc3sccc3n12`, the “% Inhibition @ 10 uM” value is given as 1.8%. As for `O=C1N2CN(C3CCCCC3)CN=C2SC1(CO)CO`, the figure is -0.357%; as for `COc1ccccc1-c1c(C)nn2c(N3CCC(N4CCCCC4)CC3)cc(C)nc12`, 0.718%. As for `Cc1nn2cc(-c3ccccc3)nc2s1`, the figure is -0.0267% and 1.24%.

With `CC1=CC=CN2C(=O)C(Cc3ccc(Cl)cc3)(NC(=O)c3ccccc3Cl)N=C12` (stereo not shown), the “% Inhibition @ 10 uM” value is given as 4.85%. The result for `CCSc1nnc(NC(=O)C(Cc2ccccc2)n2cccc2)s1` (stereo not shown) reads -6.07%. The result for `Cc1cc(C(F)(F)F)nn1CC(=O)Nc1ccc(Br)c2cccnc12` reads 0.361%; that for `Cc1ccccc1C(=O)Nc1sc2c(c1C(=O)OC(C)C)CCCC2`, -1.1%. Take `COc1cc(/C=C2/NC(=O)N(Cc3ccccc3F)C2=O)cc(Br)c1O`: the “% Inhibition @ 10 uM” value was 63%. Take `N#CC1=C(N)Oc2[nH]nc(C(F)(F)F)c2C1c1ccccc1Cl` (stereo not shown): the “% Inhibition @ 10 uM” value was found to be 0.514%.

For the molecule `Cc1ccc(C(=O)Nc2ccc(C)c(Cl)c2)s1`, the “% Inhibition @ 10 uM” value is -7.93%.

Take `Cc1[nH]c(-c2ccc(F)cc2)cc1C(=O)NCCCOC(C)C`: the “% Inhibition @ 10 uM” value is reported as -0.659%.

With `O=C(Cn1cc(C(=O)C(F)(F)F)c2ccccc21)N1CCc2ccccc2C1`, the “% Inhibition @ 10 uM” value is given as -5.15%. As for `COc1ccc(-c2noc(N(C)CC(=O)NCCCN3CCOCC3)n2)cc1`, the figure is 4.33%.

With `CCS(=O)(=O)n1nc(-c2ccc(OC)cc2)nc1N`, the “% Inhibition @ 10 uM” value is recorded as -2.75%. `CCOCCCNC(=O)Nc1nnc(N2CCCC(C)C2)s1` (stereo not shown): the “% Inhibition @ 10 uM” value is reported as 0.623%.

`CCc1nn(-c2cc(Cl)nc(-c3ccccc3)n2)c(N)c1C#N`: the “% Inhibition @ 10 uM” value is -3.16%. The result for `O=[N+]([O-])c1ccccc1S(=O)(=O)N1CCN(Cc2ccccc2)CC1` reads 0.986%; that for `CCc1nn(CC(=O)NCCc2ccc(C)cc2)c(=O)c2cc3sccc3n12`, -3.35%; that for `COc1ccc(Oc2nc3ccccc3n3cnnc23)cc1`, -6.22%. The result for `CCOC(=O)c1cncc(Br)c1` reads 2.62%; that for `CS(=O)(=O)N(CC(=O)Nc1ccc(Br)cc1F)C1CCCCC1`, 1.84%. As for `CCOc1ccccc1CNCc1c(C(=O)O)n(Cc2ccccc2F)c2cc(C)ccc12`, the figure is 3.97%; as for `COc1ccccc1/C=C(\NC(=O)c1ccccc1)C(=O)Nc1ccc(Cl)cc1`, 4.01%; as for `CC(NC(=O)C1CCCN(S(C)(=O)=O)C1)c1ccccc1` (stereo not shown), 0.514%.

Take `CN1C(C(=O)NCCN2CCOCC2)=CC(c2ccco2)=NS1(=O)=O`: the “% Inhibition @ 10 uM” value is reported as 3.92%. The result for `O=C(Nc1ccccc1C(F)(F)F)c1cccnc1Cl` reads 1.28%. The result for `COc1ccc(/C=C2\N=C(c3ccc(Cl)c(Cl)c3)OC2=O)cc1OC` reads -1.89%; that for `CC(=O)Nc1ccc(NC(=O)/C=C/c2ccccc2)cc1`, -1.92%; that for `Cc1ccc(-c2csc(Nc3ccccn3)n2)cc1`, 2.62%.

Turning to `CCOc1ccc(C2c3c(-c4cc(C)ccc4O)n[nH]c3C(=O)N2Cc2ccco2)cc1` (stereo not shown), the “% Inhibition @ 10 uM” value is on record as 5.35%. Regarding `Cc1cccn2c(=O)c3cc(C(=O)NC4CCCC4)c(=N)n(CC4CCCO4)c3nc12` (stereo not shown), the “% Inhibition @ 10 uM” value was found to be 1.97%. The result for `COc1ccc(OCC(=O)Nc2ccc(C#N)cc2)cc1` reads 2.01%; that for `COc1ccccc1C(=O)N/C(=C\c1ccc2c(c1)OCO2)C(=O)NCCO`, 2.3%. The result for `O=C(Nc1ccc(S(=O)(=O)Nc2nccs2)cc1)C1CCCO1` (stereo not shown) reads -3.49%; that for `O=C(O)c1ccc(CNCc2ccccc2F)cc1`, -1.05%. The result for `CC1(C)CC(=O)C2=C(C1)N(Cc1ccccc1)C(=O)C2(NC(=O)c1cccs1)C(F)(F)F` (stereo not shown) reads 3.93%; that for `O=C(Cn1c(-c2ccccn2)nc2ccccc21)NCCCn1ccnc1`, -3.33%.

For the molecule `CN(Cc1cccc(Cl)c1)C1CCN(C(=O)NCc2ccccc2)CC1`, the “% Inhibition @ 10 uM” value amounted to 0.0882%. The result for `Cc1cccc(-c2cc(C(=O)NCc3cnn(C)c3)c3ccccc3n2)c1` reads 5.54%; that for `COc1ccc(CCNC(=O)c2ccc(CS(=O)(=O)c3ccccc3)o2)cc1OC`, -1.28%; that for `CC[C@@H](C)[C@@H](CS(=O)(=O)N[C@@H](CCc1ccccc1)C(=O)C[N+](=O)[O-])NC(=O)OCc1ccccc1`, -7.36%. The result for `Cc1cc(C(=O)Nc2ccccc2C(=O)O)ccc1N` reads -15.1%; that for `COc1cc2c(C(=O)NCc3ccc(F)cc3)cn(CC(C)C)c(=O)c2cc1OC`, -2.49%; that for `COc1ccc(C2CC(C(F)(F)F)n3nc(C(=O)NCc4cn(C)nc4C)c(Cl)c3N2)cc1` (stereo not shown), 4.3%. As for `Cn1nc(Oc2nc(Cl)nc(NC(C)(C)C)n2)ccc1=O`, the figure is -6.7%; as for `Cc1cc(NC(=O)CCCOc2ccc(Cl)cc2C)no1`, 2.36%; as for `Cc1cccc(Cn2c(C)c(C)c3cc(C(=O)N4CCOCC4)ccc32)c1`, -1.04%. In the case of `CCOc1cc2c(cc1OCC)C(c1ccc(O)c(Cl)c1)NCC2` (stereo not shown), the “% Inhibition @ 10 uM” value came to 1.92%. The result for `COc1ccc(-c2c(C#N)c(N)n3c(nc4ccccc43)c2C#N)cc1OC` reads 26.6%; that for `O=C(CCn1ccc2cc(S(=O)(=O)N3CCCC3)ccc21)NCCc1ccccc1`, 7.2%. As for `Cc1cc2ncn(CCCOc3ccccc3)c2cc1C`, the figure is 1.12%; as for `OCC1CCCN(Cc2ccccc2)C1` (stereo not shown), -1.5%; as for `CCc1nn(CCCC(=O)N2CCCCCC2)c(=O)c2cc3occc3n12`, 1.38%.

As to `O=C1/C(=C/c2ccco2)N=C(N2CCCCC2)N1c1cccc(Cl)c1`, the “% Inhibition @ 10 uM” value was -12.7%. The result for `COc1ccc(N2C(=O)C3CC=CC(C)C3C2=O)cc1` (stereo not shown) reads -4.67%. The result for `Cc1ccc2oc(-c3ccccc3)c/c(=N\CCCCCC(=O)O)c2c1` reads 2.24%; that for `CCOc1ccccc1CNCc1c(C(=O)O)n(C)c2cc(OC)ccc12`, 4.41%.

Take `Cc1ccc(CN2CCN(c3ncccn3)CC2)cc1`: the “% Inhibition @ 10 uM” value was found to be 4.47%. The result for `Sc1nc(-c2ccccc2)nc2c1Cc1ccccc1O2` reads 4.16%; that for `CN(C)C(=O)CCC(=O)c1c[nH]c2ccccc12`, -7.96%. The result for `Cc1ccc(-c2nnc(SCC(=O)N3CC(C)CC(C)C3)o2)cc1C` (stereo not shown) reads -2.19%; that for `N#CC1(c2ccccc2)CCN(S(=O)(=O)c2ccc(OC(F)(F)F)cc2)CC1`, -5.08%.

With `CCN1C(=O)CC(C(=O)Nc2ccc(C(=O)O)cc2)S/C1=N\c1cccc(Cl)c1` (stereo not shown), the “% Inhibition @ 10 uM” value is listed as 1.52%. The result for `Cc1nc2ccc(S(=O)(=O)NCC(=O)N3CCC(Cc4ccccc4)CC3)cc2s1` reads 4.14%; that for `CC1=C(C(=O)OC(C)C)C(c2ccc(Cl)cc2Cl)CC(=O)N1` (stereo not shown), -7.98%.
